Data reported in PubChem BioAssay AID360 (National Center for Advancing Translational Sciences (NCATS), 2006).
The campaign covered roughly 48,000 compounds. About 550 (1.1%) were called active. Not shown: some 4% with an inconclusive outcome. Rule as the data show it: active = potency below about 15 µM; inconclusive = mostly about 16 µM to 33 µM; inactive = weaker than that. This is one part of the list.

biological target: Lysosomal acid glucosylceramidase (Homo sapiens) (UniProt P04062); assay: Glucocerebrosidase; settings: purified enzyme, resorufin glucoside fluorescence (screen aimed at inhibitors), 20 min;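 also: the screen sought inhibitors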
UniProt P04062, sequence (P04062 whole entry, looked up): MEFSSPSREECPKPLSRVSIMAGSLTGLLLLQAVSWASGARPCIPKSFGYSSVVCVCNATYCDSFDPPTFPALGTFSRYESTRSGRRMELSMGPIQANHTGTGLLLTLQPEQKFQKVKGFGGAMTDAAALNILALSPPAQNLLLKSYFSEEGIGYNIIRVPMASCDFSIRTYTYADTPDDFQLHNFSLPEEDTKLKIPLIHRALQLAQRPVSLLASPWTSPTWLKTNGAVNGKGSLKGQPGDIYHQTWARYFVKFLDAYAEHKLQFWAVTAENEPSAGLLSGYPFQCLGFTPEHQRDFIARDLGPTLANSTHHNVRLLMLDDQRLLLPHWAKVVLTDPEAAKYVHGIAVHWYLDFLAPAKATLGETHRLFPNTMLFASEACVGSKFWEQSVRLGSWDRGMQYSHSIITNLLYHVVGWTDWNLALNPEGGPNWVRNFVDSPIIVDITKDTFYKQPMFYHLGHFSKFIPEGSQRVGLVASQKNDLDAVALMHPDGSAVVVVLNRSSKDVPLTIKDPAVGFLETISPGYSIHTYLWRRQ
In short: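 Wild-type enzyme at 0.2 nM final in 50mM citric acid/KH2PO4, 10mM sodium taurocholate, 0.01% tween-20, pH 5.9, with resorufin beta-D-glucopyranoside at 30 uM final. Compounds titrated, 20 min at RT, red fluorescence read; AC50 from titration.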
Potency is read from the fitted curve at half-maximal effect.

Potency, inactive:
Cn1cc(CNC(=O)Nc2ccc3c(c2)OCO3)cn1 > 76.9 µM, CC(C)(C)SCCNC(=O)c1ccc(NS(C)(=O)=O)cc1 > 76.9 µM, O=C(CN1C(=O)c2ccccc2C1=O)Nc1nnc(C2CCCO2)s1 (stereo not given) > 76.9 µM, CC(C)=C(C#N)c1nc2ccccc2s1 > 76.9 µM, CCOC(=O)c1cnc(SCC(=O)N2CCc3ccccc32)nc1N > 76.9 µM, CCN(CC)S(=O)(=O)c1ccc(Nc2cc(C)nc3ncnn23)cc1 > 76.9 µM, COc1ccc(N2CCC(CNS(=O)(=O)c3cccc(C(F)(F)F)c3)C2)cc1 (stereo not given), COc1ccc(-c2nnc(SCC(N)=O)n2N)cc1 > 76.9 µM, COc1ccc(-c2nnc(CSc3nc4ccccc4c(=O)n3CC3CCCO3)o2)cc1OC (stereo not given) > 76.9 µM, OCC#CCSc1nnc(-c2ccccc2Br)o1 > 76.9 µM, CCOC(=O)CC(=O)CSc1ncc(C(=O)OCC)c(N)n1 > 76.9 µM, Cc1nc(C)n(C(C)CC(=O)O)n1 (stereo not given) > 76.9 µM, COc1ccc(-c2cc(C(=O)N3CCN(C(c4ccccc4)c4ccccc4)CC3)no2)cc1OC > 76.9 µM, COc1ccccc1CN(Cc1ccco1)S(=O)(=O)c1ccc(-n2cnnn2)c(OC)c1 > 76.9 µM, Cc1ccc(NC(=O)c2ccco2)c(NC(=O)CN2C(=O)c3ccccc3C2=O)c1 > 76.9 µM, Cc1ccc(-n2nc3c(c2NC(=O)c2ccc(OC(C)C)cc2)CS(=O)C3)cc1 (stereo not given) > 76.9 µM, O=C(NCc1cccs1)c1cc(-c2cccc(Cl)c2)on1 > 76.9 µM, COc1ccc(OC)c(C(c2nnnn2CC2CCCO2)N2CCN(C)CC2)c1 (stereo not given) > 76.9 µM, OC(CN1C2=NCCN2c2ccccc21)c1ccc2c(c1)OCO2 (stereo not given) > 76.9 µM, c1ccc(CCc2ccccc2-c2nc(-c3ccccn3)no2)cc1 > 76.9 µM, Brc1ccc(NCc2nnc3n2CCCCC3)cc1 > 76.9 µM, CCOc1cc(N2CCOCC2)c(OCC)cc1NC(=O)c1nc2nc(C)cc(C)n2n1 > 76.9 µM, O=C(OCC(=O)N1CCCCC1)c1c[nH]c(=O)[nH]c1=O > 76.9 µM, Cc1ccc(N(C(=O)c2ccc3c(c2)OCO3)C2C=CS(=O)(=O)C2)cc1 (stereo not given) > 76.9 µM, N#CCCCn1c(-c2ccccc2)noc1=O > 76.9 µM, Cc1[nH]c2ccccc2c1C1(O)C(=O)N(Cc2ccc3c(c2)OCO3)c2ccccc21 (stereo not given) > 76.9 µM, Cc1cccc(-c2c3c(=O)n(C)c(=O)n(C)c3cn2C(C)(C)C)c1 > 76.9 µM, Cn1c(SCC(=O)N2CCCCC2)nc2cccnc21 > 76.9 µM, CC(C)CNS(=O)(=O)c1ccc(CCC(=O)N2CCOCC2)cc1 > 76.9 µM, CN(C(=O)COc1cccc(Br)c1)C1CCS(=O)(=O)C1 (stereo not given) > 76.9 µM, C=CCNc1nc(NCCO)nc(N2CCCC2)n1, CCOc1ccccc1N1CCN(C(=O)Nc2ccc(F)c(Cl)c2)CC1 > 76.9 µM, COc1ccc(-c2cc(CCCC(=O)NCCc3cc(OC)ccc3OC)no2)cc1 > 76.9 µM, Cc1ccc(-c2cc(C(=O)NCc3ccccn3)no2)cc1 > 76.9 µM, CC(C)(C)C(=O)[C@@H]1[C@@H]2C(=O)N(c3ccc4c(c3)OCCO4)C(=O)[C@@H]2C2c3ccccc3C=CN21 (stereo not given in full) > 76.9 µM, Cn1c(SCc2nc3ccccc3n2CCO)nc2ccccc21 > 76.9 µM, O=c1c2[nH]c3ccccc3c2ncn1CCC1=CCCCC1 > 76.9 µM, COc1cc(NC(=O)Cn2nnc(-c3ccccc3N)n2)cc(OC)c1 > 76.9 µM, COc1ccc2[nH]c(=O)c(CN(C(=O)C3CCCO3)c3ccc(C)cc3)cc2c1 (stereo not given) > 76.9 µM, COc1ccc(-n2c(COc3ccccc3)nnc2SCC(N)=O)cc1 > 76.9 µM, COC(=O)c1cc(NC(=O)CSc2nnc(CN3CCOCC3)n2C)ccc1Cl > 76.9 µM, COC(=O)C1=C(N)OC2=C(C(=O)CC(C)(C)C2)C1c1cccnc1 (stereo not given) > 76.9 µM, CC(C(=O)OCC(=O)Nc1ccc2c(c1)OCO2)N1C(=O)c2ccccc2C1=O (stereo not given) > 76.9 µM, COCCn1nnnc1C(c1ccccn1)N1CCN(c2cc(C)ccc2C)CC1 (stereo not given) > 76.9 µM, O=C(NCc1ccccn1)c1c(Cl)cccc1Cl > 76.9 µM, O=C(Nc1nccs1)c1c(O)c2cccc3c2n(c1=O)CCC3 > 76.9 µM, Cc1cc(=O)[nH]c(S/C=C/c2ccccc2)n1 > 76.9 µM, COC(=O)CSC1=C(C#N)C(c2sccc2C)CC(=O)N1 (stereo not given) > 76.9 µM, Cc1ccc(S(=O)(=O)N2CCC(C(=O)OCC(=O)N3CCc4ccccc43)CC2)cc1 > 76.9 µM, CSCCC1NC(=O)N(CC(=O)Nc2ccc(N3CCCCC3)cc2)C1=O (stereo not given) > 76.9 µM, CCCCCc1c(C)nc(SCC(=O)O)[nH]c1=O > 76.9 µM, Cn1c(SCC(=O)NCC2CCCO2)nnc1-c1ccc(S(=O)(=O)N2CCCC2)cc1 (stereo not given) > 76.9 µM, CCn1c(Sc2nc(C)nc3scc(-c4cccs4)c23)n[nH]c1=O > 76.9 µM, CCCCCn1c(SCC(=O)OCC)nc2cc(C(=O)NCc3ccco3)ccc2c1=O > 76.9 µM, c1ccc(Cc2nn3c(COc4ccccc4)nnc3s2)cc1 > 76.9 µM, O=C(c1ccc(-c2nnc(-c3ccccc3)o2)cc1)N1CCCCCC1 > 76.9 µM, CCc1nnc(NC(=O)CCC(=O)N2CCN(C3CCCCC3)CC2)s1 > 76.9 µM, O=c1c(Cl)c(NCCO)ncn1-c1ccccc1 > 76.9 µM, CC12CCC(C(=O)NCCCn3ccnc3)(OC1=O)C2(C)C (stereo not given) > 76.9 µM, CN1CCN(C(=O)c2ccc3c(=O)n(Cc4ccc(Cl)cc4)c(=S)[nH]c3c2)CC1 > 76.9 µM, CCOC(=O)C1=C(C)NC(=O)NC1C1CC=CCC1 (stereo not given) > 76.9 µM, OC(COCc1ccc(Cl)cc1)CN1CCN(CC(O)COCc2ccc(Cl)cc2)CC1 (stereo not given) > 76.9 µM, O=C1CCc2nc3sc4c(c3c(=O)n2N1)CCCC4 > 76.9 µM, O=C1C(c2ccc(F)cc2)N(C2CCCCC2)C(=O)CN1C1CCCC1 (stereo not given) > 76.9 µM, Cc1cccc(N=C(N2CCOCC2)P(=O)(N2CCOCC2)N2CCOCC2)c1 > 76.9 µM, CC(C)NC(=O)c1cccc(Cn2cc(Cl)cn2)c1 > 76.9 µM, CN(C)c1ccc(C2C=C(c3ccc(Cl)cc3OC(F)F)Nc3ncnn32)cc1 (stereo not given) > 76.9 µM, Cc1ccccc1-n1c(SCC(=O)N2CCOCC2)nc(O)cc1=O > 76.9 µM, Nc1cc(C(=O)OCC(=O)NCc2ccco2)ccc1Cl > 76.9 µM, CCCn1c(NCc2cccc(OC)c2O)nc2ccccc21 > 76.9 µM, Cc1cc(C)nc(SCc2nnc(SCC(=O)Nc3ccc(C)c(C)c3)n2Cc2ccco2)n1 > 76.9 µM, CCOC(=O)c1ccccc1NC(=O)CSc1nnnn1C1CCCCC1 > 76.9 µM, CCOc1cc(C2C(C(=O)N3CCCCC3)=C(C)NC3=C2C(=O)CC(C)(C)C3)ccc1O (stereo not given) > 76.9 µM, CCOC(=O)N1CCN(c2cc(=O)n(-c3ccc(OCC)cc3)c(=O)[nH]2)CC1 > 76.9 µM, CC(C)C(=O)Nc1ccc(NC(=O)c2ccccc2Cl)nc1 > 76.9 µM, FC(F)(F)c1nc2nncn2c2c1CCCCC2 > 76.9 µM, O=c1[nH]c(SCc2ccc(Cl)cc2)nc2c1CCC2 > 76.9 µM, Nc1cc(=O)nc(SCc2ccccc2)n1Cc1ccco1 > 76.9 µM, Cc1ccc(NC(=O)c2oc3ccccc3c2NC(=O)c2ccc3c(c2)OCO3)cc1 > 76.9 µM, CCOc1cc(NC(=O)C2CC2)c(OCC)cc1NC(=O)c1cccnc1 > 76.9 µM, O=C(c1ccco1)N1CCN(C(=O)C2Cc3ccccc3CN2S(=O)(=O)c2ccc(F)cc2)CC1 (stereo not given) > 76.9 µM, CCC1CCCCN1S(=O)(=O)c1ccc(S(=O)(=O)N(Cc2cccs2)C2CC2)cc1 (stereo not given) > 76.9 µM, CC(C)(C)n1nnnc1C(c1cccc(C(F)(F)F)c1)N1CCOCC1 (stereo not given) > 76.9 µM, O=C(NCC1CCCO1)C1CCCN(c2ncccn2)C1 (stereo not given) > 76.9 µM, O=C(NC(Cc1ccc(F)cc1)C(=O)O)c1ccccc1 (stereo not given) > 76.9 µM, O=C(c1nc2ncccn2n1)N1CCN(c2ccc(F)cc2)CC1 > 76.9 µM, COCCSc1nnc(-c2cnccn2)o1 > 76.9 µM, N#Cc1c(N)nc2c(c1-c1ccco1)CCCCC2 > 76.9 µM, COc1cccc(N2CCN(C3CC(=O)N(c4ccc(F)c(Cl)c4)C3=O)CC2)c1 (stereo not given) > 76.9 µM, CCN(CC)C(c1ccc(C)cc1)c1nnnn1C1CCCCC1 (stereo not given) > 76.9 µM
